Measurements reported in paper PMC5426369.
No constants are given. Whether binding was seen depends on the method and setting. Binding seen in cells or lysates may run through a third protein. Some binding calls cover weakened binding; strength is not graded here.

Protein sequences, listed by entry. Tags and fused reporters are not part of them.
UniProt P08413: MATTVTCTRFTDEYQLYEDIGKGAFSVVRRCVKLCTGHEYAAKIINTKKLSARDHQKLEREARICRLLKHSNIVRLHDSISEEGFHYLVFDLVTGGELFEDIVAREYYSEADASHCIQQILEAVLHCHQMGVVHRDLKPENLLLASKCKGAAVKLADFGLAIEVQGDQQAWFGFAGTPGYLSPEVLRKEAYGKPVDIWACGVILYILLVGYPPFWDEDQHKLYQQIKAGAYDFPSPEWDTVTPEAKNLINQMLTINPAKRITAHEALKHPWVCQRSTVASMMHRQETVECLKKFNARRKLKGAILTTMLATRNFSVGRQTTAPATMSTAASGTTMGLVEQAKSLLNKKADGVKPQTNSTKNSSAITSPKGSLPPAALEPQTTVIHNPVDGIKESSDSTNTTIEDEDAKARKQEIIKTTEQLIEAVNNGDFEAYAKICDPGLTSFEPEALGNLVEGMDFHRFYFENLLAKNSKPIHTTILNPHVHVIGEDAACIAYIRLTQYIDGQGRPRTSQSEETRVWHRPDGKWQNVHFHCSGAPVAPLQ
UniProt P11275: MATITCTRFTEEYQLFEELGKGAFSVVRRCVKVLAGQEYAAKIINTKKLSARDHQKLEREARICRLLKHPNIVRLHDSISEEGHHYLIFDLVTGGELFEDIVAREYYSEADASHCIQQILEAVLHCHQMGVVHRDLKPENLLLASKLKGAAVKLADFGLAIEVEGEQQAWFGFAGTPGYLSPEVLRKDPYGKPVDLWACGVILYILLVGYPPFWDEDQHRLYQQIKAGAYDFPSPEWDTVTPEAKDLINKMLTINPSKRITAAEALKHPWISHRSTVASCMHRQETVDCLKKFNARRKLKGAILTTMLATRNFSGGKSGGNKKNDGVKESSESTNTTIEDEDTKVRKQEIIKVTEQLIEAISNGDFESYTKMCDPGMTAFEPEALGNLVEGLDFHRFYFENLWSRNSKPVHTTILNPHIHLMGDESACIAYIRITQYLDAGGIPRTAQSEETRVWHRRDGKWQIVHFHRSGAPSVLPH
UniProt P45592: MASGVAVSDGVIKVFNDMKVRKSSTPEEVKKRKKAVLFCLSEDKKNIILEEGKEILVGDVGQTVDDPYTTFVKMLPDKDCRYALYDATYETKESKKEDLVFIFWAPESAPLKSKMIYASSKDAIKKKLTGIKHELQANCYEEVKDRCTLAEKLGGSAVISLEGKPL

Key:
[1] = target: T1, Activity-regulated cytoskeleton-associated protein (Arc), unmodified 50 kDa, endogenous (rat (endogenous in dentate gyrus)) (UniProt Q63053); assay: co-IP; native proteins from rat dentate gyrus lysate (HFS-treated, contralateral control or naive); antibody on protein G-agarose or protein A/G magnetic beads, 4°C, 20 mM Hepes pH 7.4, 137 mM NaCl, 1 mM EDTA, 0.5% NP-40, 20 mM NEM; immunoblot
T1 sequence: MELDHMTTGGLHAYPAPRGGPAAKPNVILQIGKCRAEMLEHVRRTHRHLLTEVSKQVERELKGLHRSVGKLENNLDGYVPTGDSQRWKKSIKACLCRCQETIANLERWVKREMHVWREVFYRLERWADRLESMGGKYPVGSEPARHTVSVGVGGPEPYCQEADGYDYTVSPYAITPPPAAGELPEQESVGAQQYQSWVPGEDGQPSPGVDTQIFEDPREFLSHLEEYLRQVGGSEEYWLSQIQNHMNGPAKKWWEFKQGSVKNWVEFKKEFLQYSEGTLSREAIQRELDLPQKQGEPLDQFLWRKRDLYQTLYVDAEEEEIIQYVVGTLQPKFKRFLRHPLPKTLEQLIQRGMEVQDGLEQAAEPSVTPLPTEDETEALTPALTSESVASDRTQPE

[2] = target: T1, Activity-regulated cytoskeleton-associated protein (Arc), unmodified 50 kDa, endogenous (rat (endogenous in dentate gyrus)); assay: co-IP; native proteins from pooled rat dentate gyrus cytoskeletal fractions (subcellular fractionation kit; HFS-treated and control); immunoblot

binding [1] | binding [2] | Substance
binds | – | calcium/calmodulin-dependent protein kinase II-beta (CaMKIIβ), endogenous (from UniProt P08413 1-542)
binds | – | calcium/calmodulin-dependent protein kinase II-alpha (CaMKIIα), endogenous (from UniProt P11275 1-478)
– | no binding | cofilin 1, endogenous (from UniProt P45592 1-166)
